From PubChem BioAssay AID1030 (National Center for Advancing Translational Sciences (NCATS), 2008)
Out of some 220,000 compounds screened, about 16,000 (7.3%) were called active. This list was built around the results that the source calls inconclusive (neither active nor inactive); the mix of calls is not that of the screen. Calls come from the whole dose curve; as a rule, active = well fitted inhibition curve with a large enough effect (not every such curve was filed as active); inconclusive = small, poorly fitted or top-dose-only effect, or another doubt; inactive = no such curve, though single readings can be large or run the other way. A potency beside an inconclusive call is a rough fit, not a confirmed value.

molecular target: Aldehyde dehydrogenase 1A1 (Homo sapiens) (UniProt P00352); assay: qHTS Assay for Inhibitors of Aldehyde Dehydrogenase 1 (ALDH1A1); conditions: Purified ALDH1A1, NADH fluorescence, propionaldehyde substrate; series mostly up to 75.3 µM; activity, negative = inhibition: at the top concentration;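 for activity, negative = inhibition: plate controls were no enzyme wells and a reference inhibitor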
Potency is the fitted concentration of half-maximal effect; tags give direction and shape of the fitted curve.

Chain of UniProt P00352 (P00352 whole entry, looked up): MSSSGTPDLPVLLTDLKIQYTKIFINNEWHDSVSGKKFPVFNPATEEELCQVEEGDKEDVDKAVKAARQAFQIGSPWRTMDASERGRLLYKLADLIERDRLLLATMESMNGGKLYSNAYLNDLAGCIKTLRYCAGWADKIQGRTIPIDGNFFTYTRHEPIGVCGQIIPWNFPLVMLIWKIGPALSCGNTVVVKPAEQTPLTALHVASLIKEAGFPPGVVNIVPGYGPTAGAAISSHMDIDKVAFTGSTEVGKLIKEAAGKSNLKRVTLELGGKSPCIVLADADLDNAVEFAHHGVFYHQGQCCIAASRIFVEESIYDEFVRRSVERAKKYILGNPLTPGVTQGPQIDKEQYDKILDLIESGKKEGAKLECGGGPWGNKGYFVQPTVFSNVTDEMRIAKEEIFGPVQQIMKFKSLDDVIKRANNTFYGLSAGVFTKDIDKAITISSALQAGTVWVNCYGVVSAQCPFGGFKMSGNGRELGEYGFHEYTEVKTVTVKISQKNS

Potency, active:
O=C(CSc1ccc(-c2ccccn2)nn1)N1CCc2ccccc21 17.8 µM, CCCC(C(=O)NC1CCCC1)N(C(=O)Cn1nnc(-c2ccc(C)o2)n1)C1CCCC1 (centres undefined) 25.1 µM, Cn1c(=O)c2c(ncn2CC(=O)Nc2cccc(S(=O)(=O)Nc3ccccc3F)c2)n(C)c1=O 7.94 µM, Cc1ccc(S(=O)(=O)Oc2ccccc2/C=C2\SC(=O)NC2=O)cc1 12.6 µM, O=C(c1ccco1)N1CCC2(CCCN(Cc3ccccc3)C2)CC1 28.2 µM, COc1ccc(S(=O)(=O)N(CC(=O)Nc2cccnc2)c2ccccc2OC)cc1 10 µM, Cc1ccc(S(=O)(=O)NCCSC(C)(C)C)cc1 17.8 µM, Cc1cccc(C)c1N1CCN(C(=O)Cn2cncn2)CC1 12.6 µM, CC(C)Cn1c(SCC(=O)N2CCN(S(=O)(=O)c3ccccc3)CC2)nc2ccccc21 12.6 µM, C/C(=N\NC(=O)c1cccc(Cl)c1)C1C(=O)c2ccccc2C1=O 12.6 µM, CCOC(=O)c1c(NC(=O)C2CCCO2)sc(C)c1C (centres undefined) 14.1 µM

Potency, inconclusive:
Cc1cccc(N2Cc3ccccc3C2=NC(=O)c2ccc(Cl)nc2)c1 28.2 µM [inhibitor, single point], COc1ccc(NC(=S)Nc2ccccc2)c(OC)c1 39.8 µM [inhibitor, single point], O=C(CN1C(=O)c2cccc3cccc(c23)C1=O)N1CCN(Cc2ccc3c(c2)OCO3)CC1 39.8 µM [inhibitor, single point], Cc1ccccc1C(=O)c1ccc2c(c1)n(C)c(=O)n2C 6.31 µM [inhibitor, partial curve], CNc1oc(C)nc1S(=O)(=O)c1ccccc1 39.8 µM [inhibitor, single point], CN(C)CCN(C)Cc1ccccc1Sc1cccc2ccccc12 39.8 µM [inhibitor, single point], CC(=O)CC1=NC(C)(C)Cc2ccccc21 39.8 µM [inhibitor, single point], CCc1cc2c(=O)c(-c3nc4ccccc4n3C)c(C(C)C)oc2c(CN2CCN(C)CC2)c1O 31.6 µM [inhibitor, single point], COc1ccc(C(=O)N2CCCC(c3nc(-c4cccs4)no3)C2)cc1 (centres undefined) 20 µM [inhibitor, partial curve], O=C1c2cnc3ncnn3c2CC2c3ccccc3CCN12 (centres undefined) 25.1 µM [inhibitor, partial curve], NCCO 39.8 µM [inhibitor, single point], Cc1cc(N2CCCCCC2)nc(-c2ccccc2O)n1 35.5 µM [inhibitor, single point], Cc1cc(C)cc(Oc2nc3c(C)cccn3c(=O)c2/C=C(\C#N)C(=O)NC2CCS(=O)(=O)C2)c1 (centres undefined) 3.16 µM [inhibitor, partial curve], O=C(Nc1ccccc1)C(=O)c1cn(CC(=O)N2CCCCC2)c2ccccc12 39.8 µM [inhibitor, single point], CCOc1cc2[nH]c(=S)n(CCCOC)c(=O)c2cc1OCC 39.8 µM [inhibitor, single point], O=C(c1cc[n+]([O-])cc1)N1CCc2c([nH]c3ccccc23)C1c1ccccc1Cl (centres undefined) 44.7 µM [inhibitor, single point], Fc1ccc(-c2nc3c(-c4ccccc4)cnn3cc2CCN2CCOCC2)cc1 20 µM [inhibitor, single point], Cc1cc(=O)[nH]c2c1c(C)nn2C1CCOC(C)(C)C1 (centres undefined) 39.8 µM [inhibitor, single point], Cc1sc(NC(=O)c2cccnc2)nc1-c1ccccc1 39.8 µM [inhibitor, single point], COc1cc(OC)cc(-c2nnc(SCc3c(F)cccc3Cl)o2)c1 14.1 µM [inhibitor, partial curve], CC1=C(C#N)C(c2ccc(O)cc2)C2=C(CC(C)(C)CC2=O)N1 (centres undefined) 25.1 µM [inhibitor, partial curve], O=C(OCC(=O)C12CC3CC(CC(C3)C1)C2)c1cccnc1Cl 39.8 µM [inhibitor, single point], O=C(CN1CCN(c2nc(-c3ccccc3)cs2)CC1)Nc1ccc2c(c1)OCO2 39.8 µM [inhibitor, single point], O=C(CNc1cccc(C(F)(F)F)c1)N/N=C/C1CCCCC1 39.8 µM [inhibitor, single point], CC1CCCCN1C(=O)c1cc(-c2ccc(Cl)c(Cl)c2)on1 (centres undefined) 28.2 µM [inhibitor, partial curve]

activity, negative = inhibition, inactive:
CCOc1cccc2oc(-c3ccccc3Cl)cc(=O)c12 -10%, CC(=O)NC1=C(NC2CCS(=O)(=O)C2)C(=O)c2ccccc2C1=O (centres undefined) 4.02%, COc1ccc(-n2c(CNc3ccc(C)cc3)nnc2SCc2ccccc2)cc1 -7.58%, Cc1csc(NC(=O)CSc2ccc(-c3ccc(F)cc3)nn2)n1 8.44%, COc1ccc(N2CCN(c3nc4c(c(=O)n(C)c(=O)n4C)n3CCCc3ccccc3)CC2)cc1 15.9%, CCC/C=C(\CCC)C(NS(=O)(=O)c1cccc2cccnc12)c1ccc(-c2ccccc2)cc1 (centres undefined) -9.76%, CCOC(=O)C1(CCOC)CCN(Cc2ccc(C3CCCCO3)s2)CC1 (centres undefined) -1.63%, CC(C)c1ccc(CNc2cc(N3CCCC3)ccc2[N+](=O)[O-])cc1 -1.95%, O=C(c1ccccc1NS(=O)(=O)c1ccc(F)cc1)N1CCCC1 6.93%, CCOP(=O)(c1ccccc1)c1nc(-c2ccc(F)cc2)oc1N1CCCCC1 (centres undefined) -14.7%, O=C(NC(c1ccccc1)c1ccccc1)C1CCCO1 (centres undefined) 0.334%, O=C(CSc1nc2ccccc2c(=O)n1-c1ccccc1F)Nc1ccc2c(c1)CCC2 -13.2%, O=c1c2ccccc2nc(SCc2nc3ccccc3s2)n1Cc1ccco1 -5.09%
